Screen size: about 43,000 compounds; about 200 (0.47%) were called active. About 12% were inconclusive and are not listed. Calls follow the shape of the dose curve; as a rule, active = well fitted cell-killing curve with a large enough effect; inconclusive = small, poorly fitted or top-dose-only effect, or effect the other way; inactive = flat fitted curve, though single readings scatter. The list shows a part of the results.
assay: Cell viability qHTS assay in S16 Pmp22-F2sN cells; settings: S16 Pmp22-F2sN Schwann cells (luciferase reporters placed in the Pmp22 gene) viability, CellTiter-Glo, 24 h; series mostly up to 57.5 µM; activity change, negative = cytotoxicity: at the top concentration; also: nearly all actives have a fitted effect of over 65% in size
Outline: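 Rat S16 Schwann reporter line, 24 h treatment with library compounds delivered at 23 nL per well. Cell viability by CellTiter-Glo luminescence.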
% is scaled to controls: 0 for no effect and ±100 for the full control effect; potency is read from the fitted curve at half-maximal effect.

Row | Compound | activity change, negative = cytotoxicity | Potency
1 | CCOc1ccccc1CNC(=O)CN1C(=O)CSc2ccc(S(=O)(=O)N3CCOCC3)cc21 | inactive: 13.5% | –
2 | COc1ccc2cc(-c3nc(Cl)c4c5c(sc4n3)CCCC5)c(=O)oc2c1 | inactive: -2.66% | –
3 | COc1cccc(CNc2nccn(-c3cc(C)cc(C)c3)c2=O)c1 | inactive: 1.72% | –
4 | CN(C)c1ccc(-c2nc3cnccn3c2Nc2cccc(C(F)(F)F)c2)cc1 | inactive: -0.0078% | –
5 | COCCn1c(CCC(=O)Nc2ccc(C)c(Cl)c2)nc2cccnc21 | inactive: -0.467% | –
6 | Clc1ccc2nc(NCc3ccccc3)c3nncn3c2c1 | inactive: 11.2% | –
7 | CCSc1ncc(Cl)c(C(=O)Nc2ccc(S(=O)(=O)N3CCC(C)CC3)cc2)n1 | inactive: -15.6% | –
8 | CCCCN(CCCNC(=O)c1ccc(Sc2ccc(Cl)cc2)c(NC(C)=O)c1)c1ccccc1 | inactive: -23% | –
9 | Cc1cc2c(cc1S(=O)(=O)CCC(=O)N1CCCC(C)C1)OCC(=O)N2 (centres undefined) | inactive: -2.08% | –
10 | Cc1ccc(-n2ncc(C(=O)NCCN3CCOCC3)c2C2CCN(C(=O)OC(C)(C)C)CC2)c(C)c1 | inactive: -1.8% | –
11 | Fc1ccccc1-n1ncc2c1ncn1nc(-c3ccccc3Cl)nc21 | inactive: 15.7% | –
12 | Cc1cccc(CNC(=O)C(=O)Nc2ccccc2C)c1 | inactive: 8.26% | –
13 | COc1ccccc1CNC(=O)CCC1N=C2c3ccccc3N=C(SCC(N)=O)N2C1=O (centres undefined) | inactive: -20.9% | –
14 | Cc1ccc(CNC(=O)c2ccc(CSCc3ccccc3Cl)o2)cc1 | inactive: -3.13% | –
15 | CC(=O)c1cccc(NC(=O)C2=CC(c3ccc4c(c3)OCO4)=NS(=O)(=O)N2C)c1 | inactive: 1.34% | –
16 | Cc1ccc(NC(=O)c2c(NC(=O)Cc3ccccc3)sc3c2CCC3)cc1 | inactive: 5% | –
17 | Cc1ccc(S(=O)(=O)NCC(c2ccc(N(C)C)cc2)N2CCc3ccccc32)cc1C (centres undefined) | inactive: 3.37% | –
18 | Cc1cccc(C)c1NC(=O)CSc1nc2ncccc2o1 | inactive: 2.48% | –
19 | COc1ccc(Cn2c(CCC(=O)Nc3cccc(OC)c3)nc3cccnc32)cc1 | inactive: -0.392% | –
20 | CC(=O)N1CCc2cc(CNC(=O)Nc3cc(Cl)ccc3C)ccc21 | inactive: -3.08% | –
21 | CCc1ccc(CNC(=O)C2CCN(c3nc4ccccc4nc3C(F)(F)F)CC2)cc1 | inactive: 4.75% | –
22 | Cc1ccc(NC(=O)Cn2nnc(-c3nc(-c4ccncc4)no3)c2N)c(C)c1 | inactive: 11.1% | –
23 | CC(NC(=O)C1CCN(C(=O)c2ccc(-n3ccc4ccccc43)s2)CC1)c1ccccc1 (centres undefined) | inactive: -9.74% | –
24 | COc1ccccc1NC(=O)C1=C(C)Nc2nc(SCc3ccc(Cl)cc3)nn2C1c1ccccc1Cl (centres undefined) | inactive: -5.41% | –

Row | Compound | activity change, negative = cytotoxicity | Potency
25 | CCOC(=O)c1c(NC(C)=O)c2c3c(sc2n1Cc1ccc(Cl)cc1)CCCC3 | inactive: 17.2% | –
26 | COc1cc(C2NC(=O)N(C)C3=C2C(=O)N(c2cccc(Cl)c2)C3)ccc1O (centres undefined) | inactive: -1.64% | –
27 | CCOC(=O)C1CCN(C(=O)CN2c3ccc(C(C)C)cc3-c3ccccc3S2(=O)=O)CC1 | inactive: -0.441% | –
28 | CCOc1ccc(OC(=O)c2cn(-c3cccc(OC)c3)c(=O)c3ccccc23)cc1 | inactive: 2.24% | –
29 | CC1CCN(C(=O)c2cc3c(=O)n(C)c4ccccc4c3s2)CC1 | inactive: -1.63% | –
30 | CS(=O)(=O)c1oc(-c2ccc(F)cc2)nc1S(=O)(=O)c1ccc(Cl)cc1 | – | active: 5.62 µM
31 | CCOc1ccccc1CNC(=O)c1ccc(-c2nc(CSc3ccc(C)cc3)c(C)o2)cc1 | inactive: -0.83% | –
32 | COc1ccc(-n2c(=O)c3c(C)c(C)sc3n(CC(=O)NCc3ccc(C)cc3)c2=O)c(OC)c1 | inactive: 6.29% | –
33 | O=C(NCc1ccc(F)cc1)C1CCCN(c2ncnc3onc(-c4ccc(F)cc4)c23)C1 (centres undefined) | inactive: 2.79% | –
34 | COc1cccc(-n2c(SCC(=O)Nc3cccc(Cl)c3)nc3c(oc4ccccc43)c2=O)c1 | inactive: -10.7% | –
35 | Cc1c(NC(=O)CC(C)C)cccc1-c1nc2cccnc2s1 | inactive: -15.2% | –
36 | O=C(CSc1cn(CCNC(=O)c2ccccc2F)c2ccccc12)Nc1ccccc1F | inactive: 13.1% | –
37 | COc1ccc(/C=C\C(=O)NC2CC(=O)N(c3ccc(F)cc3)C2)cc1OC (centres undefined) | inactive: 7.17% | –
38 | CCc1ccc(NCc2cc3ccc(OC)cc3n(CC(=O)Nc3ccc(C(C)C)cc3)c2=O)cc1 | inactive: -22.1% | –
39 | Cc1ccc(Nc2c(-c3ccsc3)nc3cccc(C)n23)cc1 | inactive: -0.137% | –
40 | CCOC(=O)CNC(=O)c1ccc(-c2nn(C)c(=O)c3ccccc23)cc1 | inactive: 28.2% | –
41 | COc1ccc(Cn2c(SCC(=O)Nc3ccc(OC)cc3)nc3ccccc32)cc1 | inactive: -11.8% | –
42 | O=C(COCc1cc(-c2ccco2)on1)Nc1cccc(O)c1 | inactive: 3.74% | –
43 | COc1cc(/C=C/c2nc3cc(Cl)ccc3c(=O)n2-c2cccc(C(F)(F)F)c2)cc(OC)c1OC | inactive: -17.2% | –
44 | COc1cc(NC(=O)Nc2nnc(N3CCCCCC3)s2)cc(OC)c1 | inactive: 8.37% | –
45 | CC1CCCN(Cc2c(O)ccc3c(=O)c(Oc4ccc(C(C)(C)C)cc4)c(C(F)(F)F)oc23)C1 (centres undefined) | inactive: 5.3% | –
46 | Cn1c(=O)c(=O)n(C)c2cc(S(=O)(=O)CCC(=O)Nc3cccc(C(F)(F)F)c3)ccc21 | inactive: -7.49% | –
47 | Cc1ccc(-c2nc3c(cnn3-c3ccccc3)c(=O)n2-c2cccc(Cl)c2)cc1 | inactive: -14.7% | –
48 | CN(C)S(=O)(=O)c1ccc2c(c1)N(CC(=O)N1CCN(c3cccc(Cl)c3)CC1)CCS2 | inactive: 12.1% | –

Row | Compound | activity change, negative = cytotoxicity | Potency
49 | COc1ccc(-c2cn3nc(N4CCC(C(=O)Nc5ccc(Cl)cc5C)CC4)sc3n2)cc1 | inactive: 7.9% | –
50 | COc1ccc(-n2nc(C(=O)NCCc3ccc(OC)c(OC)c3)c3c4ccccc4n(C)c3c2=O)cc1Cl | inactive: 3.67% | –
51 | Cc1oc(-c2ccc(C(=O)NCCc3ccc(Cl)cc3)cc2)nc1CSc1ccccc1 | inactive: 1.58% | –
52 | O=C(Cn1cc(SCc2ccccc2)c2ccccc21)N1CCCCCC1 | inactive: -29.1% | –
53 | CCOc1ccccc1CNC(=O)c1cnc2c(-c3ccc(OCC)c(OCC)c3)c(C)nn2c1C | inactive: -2.71% | –
54 | Cc1ccc(S(=O)(=O)n2nc(C)c(S(=O)(=O)N3CCC(C)CC3)c2C)cc1 | inactive: 11.2% | –
55 | O=C(NCc1ccccc1)c1ccc2c(c1)N(Cc1cccc(Cl)c1)C(=O)c1ccccc1S2(=O)=O | inactive: -1.89% | –
56 | Cc1ccc2nc(-c3ccc(Cl)c(NC(=O)c4cccc([N+](=O)[O-])c4C)c3)oc2c1 | inactive: 6.45% | –
57 | Cc1ccccc1CN1C(=O)c2ccccc2Sc2ccc(C(=O)OCc3ccco3)cc21 | inactive: 1.92% | –
58 | CCOC(=O)C1CCC(CN(Cc2c(Cl)cccc2Cl)S(=O)(=O)c2ccc(Cl)cc2)CC1 (centres undefined) | inactive: -17.8% | –
59 | CCn1ccc2cc(S(=O)(=O)N3CCC(C(=O)NCc4ccc(OC)cc4)CC3)ccc21 | inactive: -4.89% | –
60 | Cc1ccc(-c2nc(SCC(=O)N3CCc4ccccc43)c3c(=O)n(C)c(=O)n(C)c3n2)cc1 | inactive: 8.11% | –
61 | Cc1ccc(N2CCN(c3c(CN4CCCC4)c(=O)oc4ccccc34)CC2)c(C)c1 | inactive: 6.65% | –
62 | CCN(C(=O)c1cccn(Cc2ccccc2C)c1=O)c1ccccc1 | inactive: 3.85% | –
63 | CCOC(=O)C1CCN(C(=O)Cn2ncc3c4ccccc4n(Cc4ccccc4F)c3c2=O)CC1 | inactive: 3.94% | –
64 | CN(C)c1ccc(NC(=O)CN2C(=O)c3ccccc3Sc3ccc(C(=O)N4CCCC4)cc32)cc1 | inactive: 4.23% | –
65 | Cc1ccc(NC(=O)CN2C(=O)CCn3nc(-c4cccn4C)cc32)c(Cl)c1 | inactive: -25.5% | –
66 | O=c1n(Cc2ccc(F)cc2)nc2n1-c1cc(Cl)ccc1OC2 | inactive: 17.5% | –
67 | Cc1nnc(NC(=O)CSc2nnc3c(n2)[nH]c2ccccc23)s1 | inactive: -20.3% | –
68 | Cc1nn(CCCC(=O)NCc2cccc(Cl)c2)c(=O)c2c1sc1ccccc12 | inactive: 3.26% | –
69 | Cc1cccc(N2CCN(CCCNC(=O)c3sc4ncccc4c3-n3cccc3)CC2C)c1 (centres undefined) | inactive: -15.5% | –
70 | COC(=O)c1cnn(-c2ccc(C(=O)Nc3ccc(OC(F)(F)F)cc3)cc2)c1N | inactive: 7.18% | –
71 | CCc1ccc(NC(=O)CN2CCSc3ccc(S(=O)(=O)N4CCCC4)cc32)cc1 | inactive: -5.5% | –
72 | COc1ccc(CCNc2nc(-c3ccc(F)cc3)cc(C(F)(F)F)n2)cc1OC | inactive: 12.7% | –

Row | Compound | activity change, negative = cytotoxicity | Potency
73 | COc1ccc(C(CNC(=O)c2cccc([N+](=O)[O-])c2)N2CCOCC2)cc1 (centres undefined) | inactive: 13.8% | –
74 | Cc1ccc(Cc2cnc(NC(=O)C3Cc4ccc(C)cc4C(=O)O3)s2)cc1 (centres undefined) | inactive: 19% | –
75 | CCOc1ccc(S(=O)(=O)c2cn(C)c3ccccc3c2=O)cc1 | inactive: 6.94% | –
76 | CC(NC(=O)c1c2c(nc3ccccc13)C(=O)N(C1CCCCC1)C2)c1ccccc1 (centres undefined) | inactive: -9.18% | –
77 | Cc1ccc(CNC(=O)Cn2c(=O)ccc3cc(S(=O)(=O)N4CCCC4)ccc32)cc1 | inactive: 14.2% | –
78 | CCC(=O)N1CCc2cc(Br)cc(S(=O)(=O)CCC(=O)N3CCN(c4ccc(OC)cc4)CC3)c21 | inactive: -0.078% | –
79 | O=C(CCCn1c(=O)c2ccccc2n(CC(=O)Nc2cccc(Cl)c2)c1=O)NCc1ccc2c(c1)OCO2 | inactive: 1.52% | –
80 | COc1ccc(C(=O)NCC(c2ccc(N(C)C)cc2)N2CCCC2)cc1 (centres undefined) | inactive: 24.7% | –
81 | CC(=O)c1ccc(N2CCN(c3nc4c(S(=O)(=O)c5ccc(C)c(C)c5)nnn4c4ccc(Cl)cc34)CC2)cc1 | inactive: 8.76% | –
82 | Cc1cc(C)cc(-n2ccnc2SCC(=O)Nc2ccc(C)cc2C)c1 | inactive: -22.4% | –
83 | CCC(=O)Nc1ccccc1-c1nc2ccccc2n(C(C)C(=O)Nc2cccc(Cl)c2C)c1=O (centres undefined) | inactive: -7.33% | –
84 | CC(C)c1ccc(Nc2ncnc3c2nc2n3CCCC2)cc1 | inactive: -22.9% | –
85 | COc1cc(NC(=O)CNC(=O)Cn2ccc3ccccc3c2=O)cc(OC)c1OC | inactive: 0.166% | –
86 | COCCn1c(C)cc(O)c(C(c2ccc(Cl)cc2)N2CCN(c3ccccc3)CC2)c1=O (centres undefined) | inactive: -9.85% | –
87 | CN1C(C(=O)c2ccccc2)=C(NC(=O)c2ccccc2Br)c2ccccc2S1(=O)=O | inactive: -0.7% | –
88 | COc1ccc(NC(=O)Nc2cccc(OCc3cc(=O)n4cccc(C)c4n3)c2)c(OC)c1 | inactive: -2.76% | –
89 | CCCCCSc1nnc2c(n1)OC(CC)Nc1ccc(Br)cc1-2 (centres undefined) | inactive: 7.12% | –
90 | Cc1cc(C)cc(Nc2nc3ccccc3n3cnnc23)c1 | inactive: 1.64% | –
91 | COc1ccc(-c2cc(C(C)=O)c(C)n2CCC(=O)Nc2ccc(C)cc2Cl)cc1 | inactive: -3.13% | –
92 | COc1cc(C2N=C(N)Nc3nc4ccccc4n32)ccc1OCC(=O)O (centres undefined) | inactive: 3.09% | –
93 | CCc1ccc(NC(=O)Cc2csc(COc3cccc(C)c3)n2)cc1 | inactive: 0.352% | –
94 | CCn1c(=O)cc(SCC(=O)NCCc2cccc(C)c2)c2ccccc21 | inactive: -22.6% | –

— PubChem BioAssay AID1508642 (National Center for Advancing Translational Sciences (NCATS), 2021)
